Results taken from publication PMC8185084.
Results are given in words; binding and its absence hold for the method and conditions named. In cells and extracts the contact can be indirect. Some results given as binding are weak or reduced against the parent protein; the word gives no strength. For some of these results: Where a sequence is shown, tags or fusion partners need not be part of it. Blank lines part the entries; values can stand above or below the molecule they belong to.

Protein sequences, listed by entry. Tags and fused reporters are not part of them. Lines headed by an entry give the natural chain unless they say otherwise; changes in a name come on top. Chains listed by the source or under a name are the forms on record and can include a tag or linker. Residues count along the entry.
UniProt Q60749: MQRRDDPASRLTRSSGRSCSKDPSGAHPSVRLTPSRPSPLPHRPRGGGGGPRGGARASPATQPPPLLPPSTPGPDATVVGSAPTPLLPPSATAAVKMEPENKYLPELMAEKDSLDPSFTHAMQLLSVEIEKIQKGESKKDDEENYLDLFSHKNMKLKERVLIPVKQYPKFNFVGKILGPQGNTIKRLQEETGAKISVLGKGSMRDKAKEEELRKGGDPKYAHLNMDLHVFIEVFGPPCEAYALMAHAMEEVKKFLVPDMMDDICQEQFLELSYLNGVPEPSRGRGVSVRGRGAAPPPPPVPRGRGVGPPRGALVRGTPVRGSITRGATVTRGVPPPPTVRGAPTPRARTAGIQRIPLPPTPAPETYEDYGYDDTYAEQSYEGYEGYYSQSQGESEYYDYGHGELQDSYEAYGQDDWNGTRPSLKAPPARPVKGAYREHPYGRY
HA-tagged Sam68 truncation mutant lacking the C-terminal domain (amino acids 347-443): residues 1-346 of Q60749

Experiments:
[1] = molecular target: T1, CREB-regulated transcriptional coactivator 2 (CRTC2), endogenous in mouse primary hepatocytes (mouse (endogenous in mouse primary hepatocytes)) (UniProt Q3U182); assay: co-IP; endogenous CRTC2 immunoprecipitated from WT (and Sam68-/-) mouse primary hepatocytes, at baseline or with glucagon treatment; precipitates immunoblotted; 1% NP40 buffer (50 mM Tris-HCl pH 8.0, 1% Triton X-100, 150 mM NaCl, 0.25% sodium deoxycholate), protein A/G plus agarose-conjugated antibodies overnight at 4 °C
T1 sequence: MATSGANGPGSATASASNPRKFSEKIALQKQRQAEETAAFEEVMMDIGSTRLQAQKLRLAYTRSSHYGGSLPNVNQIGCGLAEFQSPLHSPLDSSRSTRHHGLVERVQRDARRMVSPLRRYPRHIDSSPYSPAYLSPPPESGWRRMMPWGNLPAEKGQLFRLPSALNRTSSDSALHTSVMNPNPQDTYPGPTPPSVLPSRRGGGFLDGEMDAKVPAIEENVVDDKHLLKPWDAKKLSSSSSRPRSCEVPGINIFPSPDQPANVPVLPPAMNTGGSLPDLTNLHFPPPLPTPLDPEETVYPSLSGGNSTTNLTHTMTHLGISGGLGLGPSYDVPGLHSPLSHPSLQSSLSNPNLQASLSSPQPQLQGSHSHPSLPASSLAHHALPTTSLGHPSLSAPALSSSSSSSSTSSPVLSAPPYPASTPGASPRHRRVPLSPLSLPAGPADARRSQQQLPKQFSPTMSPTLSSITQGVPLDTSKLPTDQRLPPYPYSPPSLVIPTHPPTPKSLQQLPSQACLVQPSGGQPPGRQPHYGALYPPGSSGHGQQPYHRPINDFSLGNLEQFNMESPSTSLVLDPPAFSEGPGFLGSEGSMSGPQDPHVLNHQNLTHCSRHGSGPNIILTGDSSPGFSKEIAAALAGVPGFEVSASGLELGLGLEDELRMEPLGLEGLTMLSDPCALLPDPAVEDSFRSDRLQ

FLAG-tagged CRTC2 = molecular target: T2, FLAG-tagged CRTC2 (UniProt Q3U182); assay: co-IP; 293T cells co-transfected with HA-Sam68 and Flag-CRTC2; 48 h later CRTC2 immunoprecipitated with anti-Flag, Sam68 detected with anti-HA
T2 sequence: T1 sequence

[2] = molecular target: Src-associated-in-mitosis-of-68kDa (Sam68), endogenous in mouse primary hepatocytes (mouse (endogenous in mouse primary hepatocytes)) (UniProt Q60749); assay: co-IP; reverse co-IP of the endogenous proteins in mouse primary hepatocytes; nucleus and cytoplasm
[3] = molecular target: HA-tagged Sam68 truncation mutant lacking the C-terminal domain (amino acids 347-443) (UniProt Q60749); assay: co-IP; 293T cells co-transfected with Flag-CRTC2 and HA-tagged WT Sam68 or truncation mutants; 48 h later Sam68 immunoprecipitated with anti-HA, CRTC2 detected with anti-Flag

Molecule: hemagglutinin (HA)-tagged Sam68, full length (from UniProt Q60749 1-443)
binding (FLAG-tagged CRTC2): binds

B2: FLAG-tagged CRTC2 (protein, UniProt Q3U182 1-692)
chain: T1 sequence
binding [3]: no binding

More lines, now with the values ahead:

binding [1]: binds
Molecule: Src-associated-in-mitosis-of-68kDa (Sam68), endogenous in mouse primary hepatocytes (from UniProt Q60749 1-443)

binding [2]: binds
B1: CREB-regulated transcriptional coactivator 2 (CRTC2), endogenous in mouse primary hepatocytes (protein, UniProt Q3U182 1-692)
chain: T1 sequence
